{"source": "PubChem BioAssay AID1508624", "about": "(National Center for Advancing Translational Sciences (NCATS), 2021)", "note": "The campaign covered roughly 48,000 compounds. About 120 (0.25%) were called active. Not shown: some 4% with an inconclusive outcome. The call rests on the fitted dose curve; in most records, active means well fitted activation curve with a large enough effect; inconclusive means small, poorly fitted or top-dose-only effect, or another doubt; inactive means no such curve, though single readings can be large or run the other way. The list shows a part of the results."}
{"experiment": "Primary qHTS for Identification of Small Molecule Activators of Huntingtin-Antisense Promoter Activity; further: nearly all actives have a fitted effect of over 55% in size", "settings": "HEK293 HTT-AS promoter firefly luciferase reporter, 24 h; series mostly up to 57.5 µM; activity change, positive = activation: at the top concentration", "text": "Assay Provider: Russell L. Margolis M.D.\nDepartment Neurology, Johns Hopkins University School of Medicine, Baltimore, MD\nHuntington's Disease (HD) is a neurodegenerative disorder caused by a CAG repeat expansion in exon 1 of huntingtin (HTT). While there are currently no disease-modifying treatments for HD, recent efforts have focused on development of nucleotide-based therapeutics to lower HTT expression. As an alternative to siRNA or oligonucleotide methods, we hypothesized that suppression of HTT expression might be accomplished by small molecules that either (1) directly decrease HTT expression by suppressing HTT promoter activity or (2) indirectly decrease HTT expression by increasing the promoter activity of HTT-AS, the gene antisense to HTT that appears to inhibit expression of HTT.\nWe developed and employed a high throughput screen for modifiers of HTT and HTT-AS promoter activity using luminescent reporter HEK293 cells; of the 52,041 compounds tested, we identified 898 replicable hits. We used a rigorous stepwise approach to assess compound toxicity and the capacity of the compounds to specifically lower huntingtin protein in 5 different cell lines, including HEK293 cells, HD lymphoblastoid cells, mouse primary neurons, HD iPSCs differentiated into cortical-like neurons, and HD hESCs. We found no compounds which were able to lower huntingtin without lowering cell viability in all assays, though the potential efficacy of a few compounds at non-toxic doses could not be excluded.\nSEQUENCE No. (1, 2, 3, etc.); […] (e.g., Cells, Incubation, Reagent, etc.); VALUE and DESCRIPTION.\n1; Reagent; 4 uL; 2,500 Hek293 luciferase reporter cells per wells\n3; Compound; 23 nL; Control inhibitor / compound library\n5; Reagent; 2.5 uL; Firefly Luc reagent; Dual-Glo Luciferase Reporter Assay System (Promega)\n6; Time; 10 min; room temperature incubation\n7; Detection; Luminescence; FLuc\nNOTES (numbers refer to sequence above)\n1; High-throughput screening, measuring luminescence from a Hek293 luciferase reporter, was performed in 1,536 well white-walled tissue-culture treated plates. 2,500 cells were plated in 4 µL of Opti-MEM per well using a Multidrop Combi Reagent Dispenser (ThermoFisher).\n2; Assay plates were cultured for 24 hours.\n3; Control inhibitor (PTC124; final concentration of 50 uM) and compound library (at final concentrations of 460 nM - 57.5 uM) were added to the assay plate using the Kalypsis Pintool Robotic System equipped with 1536 pinheads.\n4; Cells were then incubated for 24 hours at 37 degrees C prior to luminescence measurements.\n5; In all cases, luminescence was measured using the Dual-Glo Luciferase Reporter Assay System (Promega) following the manufacturer's instructions.\n6; Room temperature incubation.\n7; Luminescence signal was obtained using the PerkinElmer ViewLux plate reader. Results were normalized to vehicle control (0% activity) and zero RLU (-100% activity)."}
{"smiles": "Cc1ccn2c(Nc3ccccc3C)c(-c3cccnc3)nc2c1", "activity change, positive = activation": "inactive: -10.3%"}
{"smiles": "Cc1cc(=O)oc2c3c(ccc12)OCN(Cc1ccc(Cl)cc1)C3", "activity change, positive = activation": "inactive: -8.61%"}
{"smiles": "CCc1nn2c(=O)cc(COC(=O)c3ccccc3NC(=O)c3cccs3)nc2s1", "activity change, positive = activation": "inactive: 1.61%"}
{"smiles": "CCn1nc(C)c2c(-c3ccccc3)cc(=O)n(C(C)C(=O)NCCc3ccccc3)c21", "note": "(configuration not stated)", "activity change, positive = activation": "inactive: -27.5%"}
{"smiles": "O=C(CCn1ccc2cc(S(=O)(=O)N3CCCC3)ccc21)NCc1ccccc1Cl", "activity change, positive = activation": "inactive: -17.5%"}
{"smiles": "COc1cccc(-c2nnc3sc(CN4CCCCC4)cn23)c1", "activity change, positive = activation": "inactive: -30.1%"}
{"smiles": "CCC1CCCCN1C(=O)Cn1c(=O)n(CCCCCC(=O)NCc2ccccc2Cl)c(=O)c2sccc21", "note": "(configuration not stated)", "activity change, positive = activation": "inactive: -17.7%"}
{"smiles": "O=C(NCCc1ccc(Cl)cc1)c1ccc2c(c1)N(Cc1cccc(Cl)c1)C(=O)c1ccccc1S2(=O)=O", "activity change, positive = activation": "inactive: -14.2%"}
{"smiles": "COc1cc(NC(=O)CCNC(=O)Cn2cnc3ccccc3c2=O)cc(OC)c1OC", "activity change, positive = activation": "inactive: 7.67% [at 11.5 µM, percent change from vehicle, -100% = no light]"}
{"smiles": "COc1ccc(CCn2c(=O)c3cccnc3n(CC(=O)Nc3c(C)cc(C)cc3C)c2=O)cc1OC", "activity change, positive = activation": "inactive: 11%"}
{"smiles": "CCCc1cc(N2CCN(c3ccc(OC)cc3)CC2)n2cnnc2n1", "activity change, positive = activation": "inactive: -22.9%"}
{"smiles": "Cc1cc(C)c(NC(=O)Nc2csc3c2CCCC3)c(C)c1", "activity change, positive = activation": "inactive: -16.1%"}
{"smiles": "CCC(=O)N1CCc2cc(Br)cc(S(=O)(=O)NCc3ccccc3)c21", "activity change, positive = activation": "inactive: -19.5%"}
{"smiles": "O=C(CCCCCn1c(=O)[nH]c2ccccc2c1=O)NCc1ccc(Cl)cc1", "activity change, positive = activation": "inactive: 16.3%"}
{"smiles": "COc1ccccc1-c1nc(SCC(=O)Nc2ccc(C)c(C)c2)n[nH]1", "activity change, positive = activation": "inactive: 2.15% [at 11.5 µM, percent change from vehicle, -100% = no light]"}
{"smiles": "O=C(O)c1cc(=O)c2c(OCC(O)COc3cccc4oc(C(=O)O)cc(=O)c34)cccc2o1", "activity change, positive = activation": "inactive"}
{"smiles": "CSc1ccc(CCNC(=O)C2CCN(c3ncnc4c3nc3n4CCCCC3)CC2)cc1", "activity change, positive = activation": "inactive: -8.95%"}
{"smiles": "CCN(CC)C(=O)COc1ccc(-c2nnc(Nc3ccc(OC)c(C(=O)NC)c3)c3ccccc23)cc1", "activity change, positive = activation": "inactive: -1.01%"}
{"smiles": "Cc1sc2ncn(CC(=O)N(C)c3cccc(C(F)(F)F)c3)c(=O)c2c1S(=O)(=O)N1CCN(c2ncccn2)CC1", "activity change, positive = activation": "inactive: -18.1%"}
{"smiles": "Fc1ccc(-n2ncc3c(N4CCN(c5ccccc5F)CC4)ncnc32)cc1", "activity change, positive = activation": "inactive: 1.19%"}
{"smiles": "COc1ccc(C2c3c(-c4ccc(F)cc4)n[nH]c3C(=O)N2c2ccccc2)cc1OC", "note": "(configuration not stated)", "activity change, positive = activation": "inactive: -14.5%"}
{"smiles": "CCOc1ccc(CCNC(=O)c2cc3c(-c4ccccc4F)nn(C)c3s2)cc1OCC", "activity change, positive = activation": "inactive: -41.9%"}
{"smiles": "CCOC(=O)c1ccc(NC(=O)c2ccc(-c3cccc(Cl)c3C)o2)cc1", "activity change, positive = activation": "inactive: -21.9%"}
{"smiles": "Cc1ccccc1CNC(=O)CCSCc1cnn(-c2ccccc2)c1-n1cccc1", "activity change, positive = activation": "inactive: -24.1%"}
{"smiles": "O=c1c2oc3ccccc3c2ncn1Cc1ccc(Br)cc1", "activity change, positive = activation": "inactive: 0.811%"}
{"smiles": "COc1ccc(C2c3c(oc4ccccc4c3=O)C(=O)N2c2nc(C)c(C)s2)cc1", "note": "(configuration not stated)", "activity change, positive = activation": "inactive: -1.14% [at 11.5 µM, percent change from vehicle, -100% = no light]"}
{"smiles": "Oc1c(Cl)cc(Cl)cc1Sc1cc(Cl)cc(Cl)c1O", "activity change, positive = activation": "inactive: -90.9%"}
{"smiles": "C=CCc1ccccc1OCC(O)CNC(C)C", "note": "(configuration not stated)", "activity change, positive = activation": "inactive: -10.2%"}
{"smiles": "O=C(COc1ccccc1)Nc1ccc2nc(SCC(=O)N3CCCC3)sc2c1", "activity change, positive = activation": "inactive: 1.15%"}
{"smiles": "COc1ccc(C2CC(=O)Oc3c2c(=O)n(C)c2ccccc32)c(OC)c1OC", "note": "(configuration not stated)", "activity change, positive = activation": "inactive: -14.6%"}
{"smiles": "Fc1ccc(N2CCN(c3ncnc4c3nc3n4CCCC3)CC2)cc1", "activity change, positive = activation": "inactive: -39.6%"}
{"smiles": "CCOc1ccc(NC(=O)CS(=O)(=O)Cc2nc(-c3ccc(C)cc3)oc2C)cc1", "activity change, positive = activation": "inactive: -17.1%"}
{"smiles": "CC(=O)OC(C)C[N+](C)(C)C", "note": "(configuration not stated)", "activity change, positive = activation": "inactive: -3.5%"}
{"smiles": "COc1ccc(OC)c2sc(N(CCCN(C)C)C(=O)c3ccco3)nc12", "activity change, positive = activation": "inactive: -24.2%"}
{"smiles": "CCCCOc1ccc(CC(=O)NO)cc1", "activity change, positive = activation": "inactive"}
{"smiles": "CCOc1cc(-c2nnc(SCC(=O)NCCCOC)nc2-c2ccc(OC)c(OCC)c2)ccc1OC", "activity change, positive = activation": "inactive: 10.5%"}
{"smiles": "COc1ccc(NC(=O)C(NS(=O)(=O)c2cccc3nsnc23)c2ccccc2)cc1", "note": "(configuration not stated)", "activity change, positive = activation": "inactive: 9.99%"}
{"smiles": "CCC(=O)Nc1nnc(S(=O)(=O)N2CCCCCC2)s1", "activity change, positive = activation": "inactive: -9.8%"}
{"smiles": "Cn1cc(S(=O)(=O)N2CCCCC2)cc1C(=O)NCc1ccc(Cl)cc1", "activity change, positive = activation": "inactive: -29.8%"}
{"smiles": "Cc1ccc(N2CCN(S(=O)(=O)c3cc(Br)cc4c3N(C(=O)C3CC3)CC4)CC2C)cc1", "note": "(configuration not stated)", "activity change, positive = activation": "inactive: -13.6%"}
{"smiles": "CCCCSc1nnc2c(n1)OC(c1ccc(C)s1)Nc1ccccc1-2", "note": "(configuration not stated)", "activity change, positive = activation": "inactive: 10.9%"}
{"smiles": "CCC(CC)c1nn2cc(-c3ccccc3)nc2s1", "activity change, positive = activation": "inactive: -38.8%"}
{"smiles": "CCS(=O)(=O)N1CC(=O)N(c2ccc(C)c(C)c2)C(C)(C(=O)NC2CCCCCC2)C1", "note": "(configuration not stated)", "activity change, positive = activation": "inactive: -2.59%"}
{"smiles": "CCCN(C(=O)c1cn(CC(C)C)c(=O)c2cc(OC)c(OC)cc12)c1cccc(C)c1", "activity change, positive = activation": "inactive: -28.5%"}
{"smiles": "COc1ccc(-c2cn3c(n2)sc2cc(C(=O)N4CCCCC4)ccc23)cc1", "activity change, positive = activation": "inactive: -14.3%"}
{"smiles": "COc1ccc(N2CC(NC(=O)Cc3cccs3)CC2=O)cc1OC", "note": "(configuration not stated)", "activity change, positive = activation": "inactive: -12.4%"}
{"smiles": "Cc1cc(S(=O)(=O)Nc2ccc3[nH]c(=O)sc3c2)ccc1F", "activity change, positive = activation": "inactive: -28.4%"}
